The campaign covered roughly 390,000 compounds. About 17,000 (4.4%) were called active. Inconclusive results, whose numbers are uncertain, are shown with a selection of clear calls. Calls follow the shape of the dose curve; as a rule, active = well fitted inhibition curve with a large enough effect; inconclusive = small, poorly fitted or top-dose-only effect; inactive = no such curve, though single readings can be large or run the other way. A potency beside an inconclusive call is a rough fit, not a confirmed value.
molecular target: Lysine-specific demethylase 4A (Homo sapiens) (UniProt O75164); test: qHTS Assay for Inhibitors of JMJD2A-Tudor Domain; conditions: AlphaScreen JMJD2A-Tudor / H3K4me3 peptide binding; activity change, negative = inhibition: at 114 µM (top of the series); also: nearly all actives have a fitted effect of over 50% in size
% is scaled to controls: 0 for no effect and ±100 for the full control effect; potency is read from the fitted curve at half-maximal effect; tags tell the direction and shape of the fitted curve.

Chain of UniProt O75164 (O75164 whole entry, looked up, the tested form may be a part): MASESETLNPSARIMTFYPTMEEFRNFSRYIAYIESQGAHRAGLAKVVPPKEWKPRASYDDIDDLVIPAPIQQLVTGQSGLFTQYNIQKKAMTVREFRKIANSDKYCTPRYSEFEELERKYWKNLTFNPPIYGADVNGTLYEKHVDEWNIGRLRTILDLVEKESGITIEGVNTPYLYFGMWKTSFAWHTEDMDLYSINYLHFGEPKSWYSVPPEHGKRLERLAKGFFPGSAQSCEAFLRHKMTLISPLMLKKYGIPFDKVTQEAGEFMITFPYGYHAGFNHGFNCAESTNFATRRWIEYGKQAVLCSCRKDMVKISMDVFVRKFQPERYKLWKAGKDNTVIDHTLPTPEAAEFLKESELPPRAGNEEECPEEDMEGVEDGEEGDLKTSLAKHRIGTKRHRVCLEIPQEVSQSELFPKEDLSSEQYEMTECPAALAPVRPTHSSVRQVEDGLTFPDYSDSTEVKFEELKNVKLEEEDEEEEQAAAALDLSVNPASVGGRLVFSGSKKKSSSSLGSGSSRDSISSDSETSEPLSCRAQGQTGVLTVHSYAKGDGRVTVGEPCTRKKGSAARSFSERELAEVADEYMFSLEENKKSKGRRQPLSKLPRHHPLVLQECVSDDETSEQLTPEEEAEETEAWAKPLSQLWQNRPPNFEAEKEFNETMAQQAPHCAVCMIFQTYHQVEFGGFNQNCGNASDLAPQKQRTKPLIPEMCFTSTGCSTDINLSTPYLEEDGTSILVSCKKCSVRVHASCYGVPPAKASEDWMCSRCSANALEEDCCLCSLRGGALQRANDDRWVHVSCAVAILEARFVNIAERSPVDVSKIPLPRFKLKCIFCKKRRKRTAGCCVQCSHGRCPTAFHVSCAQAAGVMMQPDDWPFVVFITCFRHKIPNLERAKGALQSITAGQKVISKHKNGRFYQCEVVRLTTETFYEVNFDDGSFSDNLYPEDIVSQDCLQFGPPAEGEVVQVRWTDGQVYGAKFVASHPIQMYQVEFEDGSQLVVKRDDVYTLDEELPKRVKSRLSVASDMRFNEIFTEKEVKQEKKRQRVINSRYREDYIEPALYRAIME

Potency, active:
CCOc1ccc(-n2cc(C(=O)NC(C)C)c3cc(OC)c(OC)cc3c2=O)cc1 20 µM
O=C(CNS(=O)(=O)c1ccc(C(=O)N2CCCCC2)cc1)N1CCCCC1 56.2 µM
COc1cc(CNc2ccc(N3CCN(C(C)=O)CC3)cc2)ccc1OCc1ccccc1 44.7 µM
Cc1ccc(-n2nnnc2-c2cnoc2-c2cccc(F)c2)cc1 15.8 µM
COc1cc(C(CC(=O)N2CCCC2)c2c(OC)cc(OC)c3c(-c4ccccc4)cc(=O)oc23)cc(OC)c1OC (stereo not drawn) 56.2 µM
O=C(CSc1nc(-c2cccs2)cc(C(F)(F)F)n1)Nc1cc(OCC(F)(F)F)cc([N+](=O)[O-])c1 22.4 µM
COc1cccc(CNC2CCCCCCC2)c1OC 35.5 µM
O=C(O)C(c1ccccc1)N1C(=O)/C(=C/c2cccs2)SC1=S (stereo not drawn) 3.98 µM
Cc1cccc(-c2n[nH]c(=S)n2C)c1 4.47 µM
CC(=O)NC1C(=O)N(CCN2CCOCC2)c2ccc(C)cc21 (stereo not drawn) 7.08 µM
CCOC(=O)c1sc(NCCNc2nc(C)c(C(=O)OCC)s2)nc1C 50.1 µM
Cc1nnc(NC(=O)CSc2nnc(-c3ccoc3C)n2CC(C)C)s1 50.1 µM
COc1ccc(/C=N/NC(=O)CCn2cnc(-c3ccccc3)c2-c2ccccc2)cc1 20 µM
Oc1cccc(C(Nc2ccccn2)c2ccc3cccnc3c2O)c1Cl (stereo not drawn) 22.4 µM
CC(=O)c1ccccc1C(=O)N1CCCC(CNC(=O)c2ccccc2Cl)C1 (stereo not drawn) 28.2 µM
C#CCOCCOCCOCCNc1nc(N2CCN(C(=O)CCCCCCCCCCNC(=O)[C@H](CCCCN)n3cc(C[C@@H](C)CC)nn3)CC2)nc(N2CCN(C(=O)CCCCCCCCCCNC(=O)[C@H](CCCCN)n3cc(C[C@@H](C)CC)nn3)CC2)n1 50.1 µM

Potency, inconclusive:
O=C(Cc1c[nH]c2ccccc12)NCc1ccc(Cl)cc1Cl 7.08 µM [inhibitor, partial curve]
COCC(=O)Nc1cccc(C(F)(F)F)c1 89.1 µM [inhibitor, single point]
Cc1ccc(Nc2c([N+](=O)[O-])cc(C(=O)N3CC(=O)Nc4ccccc43)cc2[N+](=O)[O-])c(C)c1 11.2 µM [inhibitor, full curve]
CC(C)(C)Nc1nc(-c2ccccn2)nc2ccccc12 39.8 µM [inhibitor, partial curve]
COc1cccc(Nc2ccc([N+](=O)[O-])c3nonc23)c1 44.7 µM [inhibitor, partial curve]
COc1ccc(NC(=S)N2CCN(Cc3ccc(C)cc3)CC2)cc1 89.1 µM [inhibitor, single point]
Cc1ccc(-c2nc3ccccn3c2Nc2ccccc2C)o1 79.4 µM [inhibitor, partial curve]
C/C=C/c1ccc(OCC(=O)Nc2cc(OC)c(OC)c(OC)c2)c(OC)c1 70.8 µM [inhibitor, partial curve]
CC(C)(C)c1ccc(Oc2ccc(N)cc2)cc1 44.7 µM [inhibitor, partial curve]
OC(c1ccc2c(c1)OCO2)c1nccc2ccccc12 (stereo not drawn) 89.1 µM [inhibitor, single point]
COc1ccc(NC(=O)C2=CC(c3cccs3)=NS(=O)(=O)N2C)cc1 50.1 µM [inhibitor, partial curve]
CCCCCOc1ccc(C(=O)OCC(=O)Nc2cc(C)on2)cc1 39.8 µM [inhibitor, single point]
Cc1ccc2c(c1)C(=O)C(=O)N2CCOc1ccccc1 50.1 µM [inhibitor, partial curve]
COC(=O)c1ccc(C2Nc3c(C)cc(C)cc3C3C=CCC32)cc1 (stereo not drawn) 56.2 µM [inhibitor, partial curve]
COc1cc2ccccc2cc1C(=O)Nc1nnc(-c2ccncc2)o1 56.2 µM [inhibitor, partial curve]
O=C(c1ccc2noc(-c3ccccc3)c2c1)N1CCN(c2ccccc2)CC1 39.8 µM [inhibitor, full curve, poor fit]
O=C(Nc1cccc(NC(=O)N2CCN(c3ccccc3)CC2)c1)N1CCN(c2ccccc2)CC1 56.2 µM [inhibitor, partial curve]
CCOc1ccc(-c2cc(C(=O)NCCCn3ccnc3)c3cc(Br)ccc3n2)cc1 50.1 µM [inhibitor, partial curve, poor fit]
COc1ccc2ccc(O)c(CN(C)CC(=O)Nc3ccccc3C(F)(F)F)c2c1 56.2 µM [inhibitor, partial curve]
O=C(C[n+]1ccccc1)N/N=C/c1ccccc1[N+](=O)[O-] 89.1 µM [inhibitor, partial curve]
CCOC(=O)c1sc(N/N=C/c2ccc(N(C)C)cc2)nc1C 70.8 µM [inhibitor, partial curve, poor fit]
Cc1cccc2nc(COc3ccc(Cl)c4cccnc34)cn12 39.8 µM [inhibitor, partial curve]
CCOc1ccc(CNS(=O)(=O)c2ccc3[nH]c4c(c3c2)CCCC4)cc1OC 56.2 µM [inhibitor, partial curve]
CC(=O)c1ccc(N(C(=O)Cc2c[nH]c3ccccc23)C(C(=O)NC2CCCCC2)c2cccs2)cc1 (stereo not drawn) 56.2 µM [inhibitor, partial curve]
CCCCN(C)CCn1c(=S)[nH]c2ncccc2c1=O 14.1 µM [inhibitor, full curve, poor fit]
Cc1[nH]c2ccccc2c1C(=O)CN1CCN(C/C=C/c2ccccc2)CC1 79.4 µM [inhibitor, partial curve]
O=C(/C=C/c1cccc(Cl)c1)c1ccc([N+](=O)[O-])o1 15.8 µM [inhibitor, full curve]
CCc1nnc(NC(=O)CN2CCN(Cc3ccc(F)cc3)CC2)s1 5.01 µM [inhibitor, full curve]
COc1cccc(-c2ccc(NC(=O)C3CCCN(Cc4ccco4)C3)cc2)c1 (stereo not drawn) 56.2 µM [inhibitor, partial curve]
O=C(Nc1cc(Sc2nc3ccccc3s2)cc([N+](=O)[O-])c1)c1cccc(F)c1F 15.8 µM [inhibitor, partial curve]
COc1ccc(N2CCN(c3nc(Cl)nc(N4CCOCC4)n3)CC2)cc1 50.1 µM [inhibitor, partial curve]
O=C(Cc1coc2cc3c(cc12)CCC3)NC1CCCCCCC1 89.1 µM [inhibitor, single point]
Cc1cc(C)cc(OCC(=O)Nc2ccc(N3CCCC3)cc2)c1 50.1 µM [inhibitor, partial curve]
COc1ccc(NC(=O)c2c3c(nc4ccccc24)CCC3)cc1S(=O)(=O)N1CCOCC1 31.6 µM [inhibitor, partial curve]
CCOC(=O)c1c(C)[nH]c(CCC(=O)NCCCN2CCN(c3cccc(Cl)c3)CC2)c1C 56.2 µM [inhibitor, partial curve]
O=C(Nc1ccc2c(c1)OCCO2)C1CC(O)CN1C(=O)Nc1ccccc1 (stereo not drawn) 1.41 µM [inhibitor, full curve]

Potency, inactive:
Cc1c(/C=N/NC(=O)c2ccc(Br)o2)cnn1C
Cc1ccc(-c2nc3c(c(SCC(=O)N4CCCCC4)n2)Cc2cc(C)ccc2O3)cc1
O=[N+]([O-])c1ccc2nc(-c3ccc(Cl)cc3)[nH]c2c1
Cc1ccc(CNc2oc(-c3ccco3)nc2S(=O)(=O)c2ccccc2)cc1
Cc1ccccc1CSc1cn(CCNC(=O)c2cccs2)c2ccccc12
Cc1ccccc1CC(=O)NC1CCN(C)CC1
CCCCn1c(N)c(N(CCOC)C(=O)c2cc(=O)[nH]c3ccccc23)c(=O)[nH]c1=O
Brc1ccc(-c2ncc(-c3ccccc3)cn2)cc1
CN(C(=O)OC(C)(C)C)c1ccc(-c2nc3ccccc3s2)cc1
O=C(NC1CCN(C(=S)Nc2ccc(F)cc2)CC1)c1ccco1
COc1ccc(NC(=O)Cn2c(CCC(=O)O)ccc2-c2ccccc2)cc1Cl
COc1ccc(C(CNC(=O)C(=O)Nc2ccc3c(c2)OCO3)N2CCN(C)CC2)cc1 (stereo not drawn)
Cc1ccc(Cl)cc1N1CCN(C(=O)c2cc(S(=O)(=O)N3CCC(C)CC3)cn2C)CC1
O=C(NNC(=O)c1cccc([N+](=O)[O-])c1)c1ccncc1
COc1cccc(/C=C2/Sc3ccc(C(=O)NCCCN4CCCC4)cc3NC2=O)c1
Cc1ccccc1OCC(=O)Nc1ccccc1N1CCC(C)CC1
CCOCCCNC(=O)C(c1ccc(OC)cc1)N(Cc1cccs1)C(=O)c1ccc(NC(C)=O)cc1 (stereo not drawn)
CCCc1cc(Nc2cccc(OC)c2)n2ncnc2n1
Cc1cccc(OCC(=O)Nc2ccc3c(c2)C(=O)NC3=O)c1
CC1=NN(C(=O)COc2ccc(C)c(C)c2)C(O)(c2ccccc2)C1 (stereo not drawn)

Activity change, negative = inhibition, inactive:
CC1=NN(c2ccc(C(=O)O)cc2)C(=O)/C1=C\c1ccc(OC(=O)c2cccs2)cc1 -6.01% [at 11.4 µM]

— PubChem BioAssay AID504339 (National Center for Advancing Translational Sciences (NCATS), 2011)
